Reference: PMC4336329 (PLoS ONE, 2015)
In all, about 310,000 compounds went through this assay and about 2,200 (0.71%) showed an effect of 50% or more. The effect is printed as a negative number. Some of the results follow.

biological target: human ether-à-go-go-related gene (hERG) potassium channel (human, UniProt Q12809); experiment: primary screen, population patch clamp on CHO cells stably expressing hERG
Sequence (Q12809 whole entry, looked up): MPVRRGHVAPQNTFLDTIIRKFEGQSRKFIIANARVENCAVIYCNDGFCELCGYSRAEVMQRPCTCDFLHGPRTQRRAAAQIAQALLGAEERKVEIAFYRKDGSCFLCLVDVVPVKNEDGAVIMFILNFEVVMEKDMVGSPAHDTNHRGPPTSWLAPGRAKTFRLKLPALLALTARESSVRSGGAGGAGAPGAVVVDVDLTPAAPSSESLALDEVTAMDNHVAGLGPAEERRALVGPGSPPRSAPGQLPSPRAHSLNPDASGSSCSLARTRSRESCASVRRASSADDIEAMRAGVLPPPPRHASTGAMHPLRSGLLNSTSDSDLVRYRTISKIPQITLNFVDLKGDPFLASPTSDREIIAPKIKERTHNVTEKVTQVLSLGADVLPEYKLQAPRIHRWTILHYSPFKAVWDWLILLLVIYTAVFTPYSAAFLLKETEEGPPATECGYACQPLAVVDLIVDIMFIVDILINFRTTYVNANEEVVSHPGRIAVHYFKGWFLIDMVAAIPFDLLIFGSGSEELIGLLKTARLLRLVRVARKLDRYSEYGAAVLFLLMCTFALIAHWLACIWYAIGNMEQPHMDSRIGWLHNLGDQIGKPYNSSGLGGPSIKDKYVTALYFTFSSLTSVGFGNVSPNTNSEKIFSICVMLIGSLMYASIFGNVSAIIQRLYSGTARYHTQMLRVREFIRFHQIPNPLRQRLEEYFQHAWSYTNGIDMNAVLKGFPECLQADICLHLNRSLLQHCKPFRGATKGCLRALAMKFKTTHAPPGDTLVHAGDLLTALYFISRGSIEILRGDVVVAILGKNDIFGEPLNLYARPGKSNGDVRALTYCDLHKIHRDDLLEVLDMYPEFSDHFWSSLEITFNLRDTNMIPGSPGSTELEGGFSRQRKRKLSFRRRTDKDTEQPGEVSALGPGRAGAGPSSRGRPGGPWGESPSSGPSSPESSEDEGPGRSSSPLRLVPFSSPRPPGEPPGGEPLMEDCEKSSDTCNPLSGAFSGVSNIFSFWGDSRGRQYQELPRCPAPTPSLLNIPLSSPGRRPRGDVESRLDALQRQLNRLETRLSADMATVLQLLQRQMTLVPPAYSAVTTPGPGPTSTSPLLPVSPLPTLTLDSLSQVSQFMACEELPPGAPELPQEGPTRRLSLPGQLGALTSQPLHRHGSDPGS

Going from `CS(=O)(=O)c1ccc2nc(NC(=O)c3ccc(Cn4cc(Br)cn4)o3)sc2c1` to `Cc1ccc(S(=O)(=O)CCC(=O)OCc2nnc(-c3ccccc3Br)o2)cc1`, the “hERG current change (%, negative = inhibition) at 1uM” value falls from 15.3% to -1.52%.

First: COc1ccc(/C=C/C(=O)N(Cc2cccs2)C2CCS(=O)(=O)C2)cc1 (centres unmarked)
Second: Cc1ccc2nc(SCC(=O)N(C)C3CCS(=O)(=O)C3)[nH]c2c1 (centres unmarked)
The “hERG current change (%, negative = inhibition) at 1uM” value of the first is lower: -4.47% for the first, 8.96% for the second.

Compared with `CCOC(=O)c1sc(NC(C)=O)nc1C`, `Cc1csc(NC(=O)c2sccc2C)n1` is higher in “hERG current change (%, negative = inhibition) at 1uM” value: -12.9% for the first, 16% for the second.

Going from `COc1ccc2occ(C(=O)c3cccs3)c2c1` to `COc1cccc(NC(=O)COC(=O)c2cc(=O)c3ccccc3o2)c1`, the “hERG current change (%, negative = inhibition) at 1uM” value rises from 7.57% to 10.9%.

Going from `Cc1ccnc(OC(C(=O)O)C(OCCc2ccccc2)(c2ccccc2)c2ccccc2)n1` (centres unmarked) to `O=C(O)C(Oc1ccc2ccccc2c1)c1ccccc1` (centres unmarked), the “hERG current change (%, negative = inhibition) at 1uM” value falls from 16.7% to 15.3%.

First: O=C(NCCCN1CCCC1)C1CCN(C(=O)c2cc3sccc3n2Cc2ccc(F)cc2)CC1
Second: O=C(c1ccco1)N1CCN(c2ccc(S(=O)(=O)N3CCCC3)cc2)CC1
The “hERG current change (%, negative = inhibition) at 1uM” value of the first is higher: -0.0417% for the first, -8.46% for the second.

First: Br.Cc1nn(CCc2nc(-c3ccco3)cs2)c2[nH]c(=O)cc(C(F)(F)F)c12
Second: Cc1nc(C)c(Oc2cccc(C(F)(F)F)c2)c(=O)[nH]1
The “hERG current change (%, negative = inhibition) at 1uM” value of the first is higher: 7.48% for the first, 7.38% for the second.

Compared with `NC(=O)CC[C@H](NC(=O)c1ccc(F)cc1)C(=O)OCC(=O)Nc1ccc(N2CCOCC2)cc1`, `CSc1ccc(/C=C(/NC(=O)c2ccccc2)C(=O)NCCN2CCOCC2)cc1` is lower in “hERG current change (%, negative = inhibition) at 1uM” value: 4.87% for the first, -10.3% for the second.

First: CNC(=O)/C(C#N)=C/c1c(N2CC(C)OC(C)C2)nc2ccccn2c1=O (centres unmarked)
Second: CC(=O)c1c(C)[nH]c(C(=O)NC2CCSc3ccccc32)c1C (centres unmarked)
The “hERG current change (%, negative = inhibition) at 1uM” value of the first is lower: 7.29% for the first, 14.5% for the second.

Going from `CCCCCCCSc1nsc(N)n1` to `CCN(CC)C(=O)CSc1nc2sc(C)c(C)c2c(=O)[nH]1`, the “hERG current change (%, negative = inhibition) at 1uM” value falls from 12.3% to 2.42%.

Compared with `O=C(O)CSC1CC(=O)N(c2ccc(Br)cc2)C1=O` (centres unmarked), `CCc1ccc(N2CC(C(=O)N3CCCC3)CC2=O)cc1` (centres unmarked) is lower in “hERG current change (%, negative = inhibition) at 1uM” value: 12.1% for the first, 0.094% for the second.

Compared with `COc1ccc(C2C(C#N)=C(N)Oc3cc(O)ccc32)cc1OC` (centres unmarked), `COc1ccc(NC(=O)COC(=O)c2c(F)cccc2Cl)cc1OC` is lower in “hERG current change (%, negative = inhibition) at 1uM” value: 2.86% for the first, -2.71% for the second.

First: Cc1cc(C)cc(N=c2c([N+](=O)[O-])nn(-c3ccc(Cl)cc3)n2O)c1
Second: Cc1nn(-c2cc(N3CCOCC3)ccc2[N+](=O)[O-])c(=O)c2ccccc12
The “hERG current change (%, negative = inhibition) at 1uM” value of the first is higher: 20% for the first, 9.19% for the second.

Going from `COc1ccc(-c2cc(C(=O)OCC(=O)c3ccc(C)c([N+](=O)[O-])c3)c3ccccc3n2)cc1` to `COc1ccc(-c2cc(C(=O)c3c(N)n(C)c(=O)n(C)c3=O)c3ccccc3n2)cc1`, the “hERG current change (%, negative = inhibition) at 1uM” value falls from 9.69% to 6.23%.

First: COc1ccc(-n2c(SCC(N)=O)nnc2-c2ccccc2F)cc1
Second: COC(=O)c1ccccc1NC(=O)CSc1nnc(-c2ccc(OC)cc2)n1C
The “hERG current change (%, negative = inhibition) at 1uM” value of the first is higher: 7.28% for the first, -5.29% for the second.

First: C(=C\c1ccccc1)/C=N/Nc1nc(N2CCCCC2)nc(N2CCCCC2)n1
Second: O=C(c1cccc(Cl)c1Cl)N1CCN(c2ccccn2)CC1
The “hERG current change (%, negative = inhibition) at 1uM” value of the first is lower: 10.7% for the first, 17% for the second.

Going from `CC(C)(C)C(=O)/C=c1\[nH]c(=O)/c(=C\c2ccc(F)cc2)s1` to `CC(C)C(=O)Nc1ncc(Cc2ccc(Cl)cc2)s1`, the “hERG current change (%, negative = inhibition) at 1uM” value rises from 7.79% to 9.12%.

Compared with `c1ccc2c(c1)Oc1cccc3cccc-2c13`, `Cc1ccc(C)c(NC(=O)c2ccccc2C(=O)c2ccccc2)c1` is higher in “hERG current change (%, negative = inhibition) at 1uM” value: 15.1% for the first, 19.8% for the second.

Going from `Cc1c(C(=O)N2CCN(CCc3ccccn3)CC2)oc2ccc(Cl)cc12` to `Cc1ccc(NC(=O)N2CCN(Cc3ccc4c(c3)OCO4)CC2)cc1`, the “hERG current change (%, negative = inhibition) at 1uM” value rises from -84.6% to 9.3%.

Compared with `COc1cc(/C=N/NC(=O)CCn2c3ccccc3c3ccccc32)ccc1O`, `CCN(C(=O)Cn1cc(C(C)=O)c2ccccc21)c1ccccc1` is higher in “hERG current change (%, negative = inhibition) at 1uM” value: 9.33% for the first, 16.5% for the second.

Compared with `O=C(/C=C/Nc1ccc(Br)cc1F)c1ccco1`, `CCN(Cc1nc(-c2cccc(C)c2)no1)C(=O)c1ccco1` is higher in “hERG current change (%, negative = inhibition) at 1uM” value: 5.17% for the first, 7.53% for the second.

First: Nc1ccccc1C(=O)NNc1c2ccccc2nc2ccccc12
Second: C=CCN(c1ccccc1)S(=O)(=O)c1cccc(C(=O)Nc2ncccc2C)c1
The “hERG current change (%, negative = inhibition) at 1uM” value of the first is higher: 14.1% for the first, 3.66% for the second.

Going from `CCOC(=O)c1ccc2c(c1)C1C=CCC1C(C(=O)O)N2` (centres unmarked) to `CCc1ccc(NC(=O)COC(=O)CCC2CCCC2)cc1`, the “hERG current change (%, negative = inhibition) at 1uM” value falls from 15.7% to 1.79%.

Going from `O/N=C/c1cn(-c2ccccc2)nc1-c1cccnc1` to `O=CN1N=C(c2ccccc2)CC1c1ccccc1[N+](=O)[O-]` (centres unmarked), the “hERG current change (%, negative = inhibition) at 1uM” value rises from -6.72% to 12.7%.

Going from `O=C(NCc1ccccn1)c1cc2n(n1)C(C(F)(F)F)CC(c1ccco1)N2` (centres unmarked) to `O=C(NCC1CCCO1)c1cccc(Oc2ccccc2)c1` (centres unmarked), the “hERG current change (%, negative = inhibition) at 1uM” value falls from 7.4% to -19.2%.

Going from `COCCNC(=S)N1CCc2cc(OC)c(OC)cc2C1c1cccs1` (centres unmarked) to `COc1cc2nc(CN3CC=C(c4ccccc4)CC3)[nH]c(=O)c2cc1OC`, the “hERG current change (%, negative = inhibition) at 1uM” value falls from 12.3% to 8.35%.

Compared with `O=C(CSc1ccccc1[N+](=O)[O-])NC1CCS(=O)(=O)C1` (centres unmarked), `COc1ccccc1NC(=O)CSc1nnc(C2CCCCC2)n1N` is lower in “hERG current change (%, negative = inhibition) at 1uM” value: 24.1% for the first, 10.3% for the second.

Going from `COc1ccc(C(=O)Oc2cc(C)[nH]c(=O)c2[N+](=O)[O-])c(OC)c1` to `CCN(CC)C(=O)Oc1cc2c(-c3cc4cccc(OC)c4o3)cc(=O)oc2cc1C`, the “hERG current change (%, negative = inhibition) at 1uM” value rises from 8.56% to 16.5%.

Going from `Cc1cccc(-c2noc(CNC(=O)COc3ccccc3C)n2)c1` to `O=C(O)CCc1ccccc1OC(=O)c1ccccc1`, the “hERG current change (%, negative = inhibition) at 1uM” value falls from 12.2% to 10.8%.

Going from `O=C(CCCN1C(=O)/C(=C/c2ccccc2)SC1=S)NCCCn1ccnc1` to `Cc1ccc(S(=O)(=O)CC(=O)Nc2c(C)n(C)n(-c3ccccc3)c2=O)cc1`, the “hERG current change (%, negative = inhibition) at 1uM” value rises from -11% to 10.9%.

First: COc1ccccc1C(C(=O)NCc1ccccc1)N(C(=O)c1csnn1)C1CC1 (centres unmarked)
Second: COc1ccccc1C(=O)C1CCCN(C(=O)CCC(=O)c2ccccc2)C1 (centres unmarked)
The “hERG current change (%, negative = inhibition) at 1uM” value of the first is higher: 7.78% for the first, -0.0025% for the second.

Going from `CCOC(=O)Cc1csc(SCC(=O)NC2CCCCC2)n1` to `COc1cccc(CN2C(=O)CCC2(C)C(=O)NC2CCCCC2)c1` (centres unmarked), the “hERG current change (%, negative = inhibition) at 1uM” value rises from 11.9% to 13.4%.

Compared with `NC(=O)CC(NC(=O)c1ccc(Br)cc1)c1ccc(NCc2ccc(F)c(F)c2)c([N+](=O)[O-])c1` (centres unmarked), `CCCCC(=O)Nc1cccc(NC(=O)c2ccc(Br)o2)c1` is lower in “hERG current change (%, negative = inhibition) at 1uM” value: 8.1% for the first, -0.387% for the second.

Going from `Cn1c(SCC#N)nnc1-c1cnccn1` to `CC(C)C1N=C2c3ccccc3N=C(SCC#N)N2C1=O` (centres unmarked), the “hERG current change (%, negative = inhibition) at 1uM” value rises from 4.11% to 19.2%.

Going from `Cc1ccc(SCc2c(C(=O)N/N=C/c3ccoc3)nnn2-c2nonc2N)cc1` to `CCOc1ccc(Nc2nnc(SCc3nc4ccccc4c(=O)[nH]3)s2)cc1`, the “hERG current change (%, negative = inhibition) at 1uM” value falls from 13.2% to 3.99%.

Compared with `O=C(OCCO)c1cc(Cl)c(C(=O)OCCO)cc1Cl`, `COc1ccc(NC(=O)CN(C)CC(=O)Nc2ccccc2SC)cc1Cl` is lower in “hERG current change (%, negative = inhibition) at 1uM” value: 14.9% for the first, -1.3% for the second.

Compared with `CC1=C([N+](=O)[O-])C(c2ccccc2)NC(=O)N1` (centres unmarked), `Cc1cc2ncn(C3CC(=O)N(Cc4ccccc4)C3=O)c2cc1C` (centres unmarked) is lower in “hERG current change (%, negative = inhibition) at 1uM” value: 18.4% for the first, 10.1% for the second.

Going from `O=C(NC1CCCCC1)c1ccc2[nH]c(=O)c(=O)[nH]c2c1` to `O=C(NC(Cc1c[nH]c2ccccc12)c1nnc2n1CCCCC2)c1cccs1` (centres unmarked), the “hERG current change (%, negative = inhibition) at 1uM” value falls from 20.5% to 5.3%.

First: CCc1ccc(-c2nc(CS(=O)CC(=O)NCc3ccc4c(c3)OCO4)c(C)o2)cc1 (centres unmarked)
Second: Cc1cc(C)nc(N2CCCC(C(=O)NCc3ccc4c(c3)OCO4)C2)n1 (centres unmarked)
The “hERG current change (%, negative = inhibition) at 1uM” value of the first is higher: 11.3% for the first, 6.18% for the second.

Going from `O=C(CN(C(=O)CNS(=O)(=O)c1ccccc1)c1ccc(Cl)cc1)NCC1CCCO1` (centres unmarked) to `CC(C)=C(NC(=O)c1ccccc1)C(=O)Nc1ccc(C(=O)O)cc1`, the “hERG current change (%, negative = inhibition) at 1uM” value falls from 17% to 10.3%.

Going from `NC(=S)N=Nc1c(O)n(C2OC(=O)c3ccccc32)c2ccccc12` (centres unmarked) to `CCC(SC1=Nc2ccccc2C2=NC(CC(C)C)C(=O)N12)C(=O)Nc1ccc2c(c1)OCO2` (centres unmarked), the “hERG current change (%, negative = inhibition) at 1uM” value falls from 6.86% to -5.83%.

Compared with `Cc1nc(-c2cccc(NS(C)(=O)=O)c2)cs1`, `Cc1csc(NC(=O)CCCc2cccs2)n1` is higher in “hERG current change (%, negative = inhibition) at 1uM” value: -6.36% for the first, 1.69% for the second.

Going from `CCCC(=O)C1=C(O)C(C(=O)OC)C(C)(C)CC1=Nc1ccc(C)cc1` (centres unmarked) to `CC(=O)N1c2ccccc2C(CBr)=CC1(C)C`, the “hERG current change (%, negative = inhibition) at 1uM” value falls from 7.7% to 5.69%.

Going from `Cc1cccc(COCC(CC(C)C)N2CCN(C(=O)c3ccc(C(F)(F)F)cc3)CCC2=O)c1` (centres unmarked) to `O=C(NCc1ccccc1)c1noc2c1CCCC2`, the “hERG current change (%, negative = inhibition) at 1uM” value rises from -3.92% to -3.07%.

In the case of `Cc1nc2ccc(Cl)cn2c1P(=S)(N1CCOCC1)N1CCOCC1`, the “hERG current change (%, negative = inhibition) at 1uM” value is reported as 2.37%.
